The text below walks through data of ChEMBL document CHEMBL4888484, “Replenishing the malaria drug discovery pipeline: Screening and hit evaluation of the MMV Hit Generation Library 1 (HGL1) against asexual blood stage Plasmodium falciparum ,using a nano luciferase reporter read-out” (2022).

Molecules are shown by their SMILES. The campaign covered roughly 150,000 compounds. About 540 (0.36%) showed an effect of 50% or more. The list shows a part of the results.

The assay concerns Plasmodium falciparum. Nature of the assay: Primary screen in NF54 nanoGlo assay, in single point, at 2uM, 72h; a lower Z score goes with more inhibition. It counts as functional, Erythrocyte. As to conditions: timepoint 72 hour.
The term % Inhibition denotes the change of the read-out against control, counted positive when it falls. On to `CCc1cccc(NC(=O)Cn2cnc3nc(N4CCCC4)sc3c2=O)c1`, for which the “% Inhibition” value was -2% and the Z score is reported as 0.26.
With `CCCC(=O)C(=O)N1Cc2c(-c3cccc(C)c3)nc(N)nc2[C@@H]1C`, the “% Inhibition” value is recorded as -13% and the Z score came to 1.24.
On the same counts, the results for `CC(=O)NCCNC(=O)c1cc(NCc2ccc3nsnc3c2)cc(S(=O)(=O)N(C)C)c1` are -16% and 1.89.
For `Cn1c(Cn2ccnc2)nnc1[C@H]1CCCN(c2ncccc2Cl)C1`, the “% Inhibition” value was -3% and the Z score worked out at 0.48.
For `O=C(C[C@H]1c2ncccc2C(=O)N1c1ccccc1)NCCN1CCCCC1`, the “% Inhibition” value is listed as -6% and the Z score worked out at 1.08.
On the same counts, the results for `CN=C(NCc1ccc(C)c(OC)c1)NCc1ccccn1` are -7% and 0.63.
As to `CC1=NS(=O)(=O)NC(C)=C1CCC(=O)N(C)Cc1ccccc1`, the “% Inhibition” value is recorded as -5% and the Z score is 0.75.
Turning to `CC(=O)N1CCOC[C@@H]1Cc1ccccc1`, the “% Inhibition” value is -4% and the Z score is given as 0.75.
On to `CCOC(=O)C1CCN(C(=O)[C@H](C)NC(=O)c2cc3n(n2)CCCN(Cc2ccc(C)cc2)C3=O)CC1`, for which the “% Inhibition” value was found to be 1% and the Z score was -0.1.
For the compound `Cc1cc(NC(=O)CCc2c(C)[nH]c(=O)c(C#N)c2C)[nH]n1`, the “% Inhibition” value is -1% and the Z score was 0.09.
On the same counts, the results for `CC1CCC(C(=O)Nc2cccc3c2OCCN3C(=O)C2CCC(C)O2)O1` (stereo unspecified) are -10% and 1.6.
On the same counts, the results for `Cc1[nH]c2ccnn2c(=O)c1CC(=O)N1CC[C@H](C)c2cccc(O)c21` are 39% and -5.3.
Regarding `Cc1ccc(C)c(NC(=O)c2nnn(CC(=O)Nc3ccc4c(c3)OCCO4)c2C)c1`, the “% Inhibition” value stood at 1% and the Z score is -0.21.
On the same counts, the results for `CC(C)N(C)S(=O)(=O)N(C)CCCN1CCCCCC1` are 1% and -0.16.
As to `c1ccc(OCCCN2CCN(Cc3noc(C4CC4)n3)CC2)cc1`, the “% Inhibition” value is reported as 10% and the Z score is listed as -1.55.
Consider `Cc1cc(CN(C)Cc2cnc3n2CCOC3)no1`, for which the “% Inhibition” value is 5% and the Z score is given as -0.94.
As for `CCN1[C@H](C)CN(c2ccnc(C(=O)OC)n2)C[C@@H]1C`, the “% Inhibition” value is recorded as -3% and the Z score is given as 0.35.
In the case of `COc1cc(C(=O)NC2Cc3ccccc3C2)ccc1OC1CCN(C(C)=O)CC1`, the “% Inhibition” value was -8% and the Z score came out at 1.03.
`CC(C)N1CCCn2cc(S(=O)(=O)Nc3ccc(N4CCOCC4)cc3)cc2C1=O`: the “% Inhibition” value is -12% and the Z score is reported as 1.41.
On the same counts, the results for `C=CCOC[C@@H](O)CN(Cc1cccn1Cc1cccc(F)c1)CC(C)C` are -18% and 1.85.
With `COCCN(C[C@@H]1CC=CCC1)C(=O)c1c[nH]nn1`, the “% Inhibition” value is on record as 31% and the Z score is listed as -3.48.
In the case of `O=C(CCNC(=O)c1ccncc1)N[C@H](c1ccccc1)C1CCC1`, the “% Inhibition” value was -8% and the Z score stood at 1.35.
For `Cc1cc(C)n(-c2ccc(C(=O)N3CC[C@H](c4cnccn4)C3)cc2)n1`, the “% Inhibition” value was -41% and the Z score amounted to 4.78.
In the case of `CCc1nc(NCCN(C)S(C)(=O)=O)ncc1C`, the “% Inhibition” value was -9% and the Z score was determined as 0.86.
As for `Cc1ccc(-c2nc(CNC(=O)NC3CCCC3)c(C)o2)cc1`, the “% Inhibition” value is given as -13% and the Z score is 1.62.
Regarding `COC[C@H](C)n1cc(C(=O)NCc2cc3n(n2)CCCO3)c(C)n1`, the “% Inhibition” value is reported as -10% and the Z score is given as 1.18.
On the same counts, the results for `Cn1ncc2c(=O)n(Cc3coc(-c4c(F)cccc4F)n3)cnc21` are -9% and 1.65.
With `CCOC(=O)N(C)CC(=O)NC1CCCCC1`, the “% Inhibition” value is -6% and the Z score was 0.86.
Regarding `CCCCn1c(CC)nc2ccccc21`, the “% Inhibition” value is -14% and the Z score amounted to 1.22.
On the same counts, the results for `CC[C@@H](c1cccnc1)N(C)C(=O)c1ccnnc1` are 4% and -0.78.
On the same counts, the results for `Clc1ccc(OCCCc2nnc3n2CCCC3)c(Cl)c1` are 24% and -3.19.
With `O=C(c1ccc2nc(-c3ccccc3)cn2c1)N1Cc2ccccc2C1`, the “% Inhibition” value was -4% and the Z score was determined as 0.87.
Turning to `CCOCCNS(=O)(=O)c1cnc(N2CCOCC2)c(Cl)c1`, the “% Inhibition” value is recorded as 4% and the Z score is -0.43.
With `CCn1c(CNc2ccccc2F)nc2cc(S(=O)(=O)N3CCCCC3)ccc21`, the “% Inhibition” value was determined as 5% and the Z score is -0.75.
On to `O=c1[nH][nH]c(=O)n1-c1ccc(Cl)cc1`, for which the “% Inhibition” value is -3% and the Z score turned out to be 0.38.
As to `Cc1ccc(C(=O)NCc2ccc(-c3nc(C(C)C)no3)s2)cc1`, the “% Inhibition” value was -1% and the Z score is 0.11.
In the case of `C#CCN(CCOC)Cc1cccs1`, the “% Inhibition” value is 18% and the Z score is -1.98.
As to `COc1cc2ncn([C@H]3[C@@H]4OC[C@@H](O4)[C@@H](NCCC(C)(C)C)[C@@H]3O)c2cc1OC`, the “% Inhibition” value is reported as -2% and the Z score is given as 0.38.
On the same counts, the results for `COCc1c(C(=O)N2C[C@@H](C)CN(C)c3ccccc32)cnn1-c1ccccc1` are 0% and -0.01.
On the same counts, the results for `COc1cccc(NC(=O)c2cc3occc3n2C)c1` are 21% and -2.63.
For the compound `COc1ccc(-c2nc3cc(C)ccc3cc2CN(C)Cc2cc(C)[nH]n2)cc1`, the “% Inhibition” value is given as -2% and the Z score is listed as 0.39.
On the same counts, the results for `CC(=O)Oc1c(-c2ccc(NC(=O)c3ccccc3Cl)cc2)c(-c2cccc(C)c2)nn1-c1cccc(F)c1` are -6% and 0.78.
`CC(C)c1ncc(C(=O)N[C@@H](C)CCCCNC(=O)OC(C)(C)C)s1`: the “% Inhibition” value is listed as -9% and the Z score was determined as 1.04.
